The supplement of paper PMC11417369
± gives the standard deviation of the averaged measurements. The list shows a part of the results.

tested on: PfAP2-EXP AP2 domain (GST-tagged); assay: gcPBM binding intensity (ln(normalized median fluorescence intensity)); higher = stronger DNA binding
Procedure, shortened: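 Alexa488 anti-GST antibody, scanned at 488 nm, detected GST-tagged P. falciparum DNA-binding domains that had been expressed in E. coli and incubated for 1 h on an Agilent 4 × 180k array. The array carried primer-extended double-stranded 36-bp intergenic genomic probes and negative controls. Binding intensity is the highest Masliner-normalised natural-log median intensity across replicate spots of either orientation of each probe.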

Row | Sequence | gcPBM binding intensity (ln)
1 | ACTACGAATGGTAGAGTGCAGTCTGGAGAAAAGTAC [GTGCAC_site9681] | 9.3 ± 0.38
2 | CTTTTTTTTTTTTTTGCGCACTGTTTAAAGGGAAAT [GTGCAC_site9815] | 8.73 ± 0.23
3 | GTGTGATATAATTTTTTTAGAGCTTTATAATATTAT [CACACA_negctrl_site233] | 8.43 ± 0.32
4 | CAACCATTTGTAGGTAAACACACATTATTATTAATA [CACACA_site8842] | 8.31 ± 0.39
5 | TATGTTGATGATATTACACACCCAATGAGAAAAGGA [CACACA_site7060] | 8.85 ± 0.49
6 | GTTAAGCAATATATATGTACTTATGGAATAGAAAAA [XGTACX_site3693] | 8.78 ± 0.42
7 | AAGTTACAGAATATCACACATAAATTATCTGTATAT [CACACA_site5116] | 8.27 ± 0.3
8 | TCAATTAATTATTTTTGTACACAAGAATTACTGAAT [XGTACX_site6401] | 8.4 ± 0.29
9 | TATTTGTAATATAACACACACAAAAAAAGACTCGGA [CACACA_site1681] | 8.8 ± 0.45
10 | TTTGTCAAATAATATTGTACTAAAAAATTTTGCCTT [XGTACX_site7485] | 8.44 ± 0.45
11 | ATACACACAGCCTAAACATGCATATAGAAAAAAGAA [TGCATGCA_site1028] | 9.21 ± 0.29
12 | TTTATTTACTATTAAAGTACTAAATCATATAATTAT [XGTACX_site2580] | 8.15 ± 0.32
13 | TGTTTATACATCAGGTGTACGCAAAATAATTGTATG [XGTACX_site206] | 8.63 ± 0.31
14 | TTAACACATGCTTGGTCACACACGTATGCATATTTA [CACACA_site2127] | 8.76 ± 0.39
15 | TATACATATACATATACACACACACCCATAAATAAA [CACACA_site8372] | 9.05 ± 0.38
16 | TTAGTTTATTGGTACTGTACTTTTTTTTTCTCCATT [XGTACX_site8618] | 8.81 ± 0.58
17 | TTATTTAAAATTTTTATGCGTATATATATAGGAACA [CACACA_negctrl_site388] | 8.62 ± 0.4
18 | TATCATATATGAAGGTGTACGATTTATTATATAAAT [XGTACX_site7010] | 8.65 ± 0.35
19 | ATTTTTGAACGGTACAGTACAGAATTTAATTAACCC [XGTACX_site47] | 9.13 ± 0.54

Row | Sequence | gcPBM binding intensity (ln)
20 | AATTTTTATTTGTACACACATACATATATATTATAT [CACACA_site993] | 8.88 ± 0.23
21 | CACAAAATAAATTAAACACACAACATCATAGATGTA [CACACA_site4619] | 8.35 ± 0.5
22 | ATAAATAATATAAATACACACTAAAAAAAATATATA [CACACA_site4456] | 8.62 ± 0.54
23 | ATATAATCAGCTTCTCTTTTATGCTAAAAAAAAAAA [CACACA_negctrl_site1310] | 8.25 ± 0.3
24 | TTTATATATTTCATAATACACACGAAAAAAAAAAAA [CACACA_site2970] | 8.61 ± 0.45
25 | TTTTTATTTACACTTTTTATTTATATATTATGTACG [CACACA_negctrl_site158] | 8.87 ± 0.32
26 | TGTCATCATCTTAAATGTACAAAAAGGAAATATAAA [XGTACX_site1529] | 8.9 ± 0.49
27 | TTTTTATTAAGACATGCATGGAAACGCACTATTTTA [TGCATGCA_site999] | 9.04 ± 0.12
28 | TTTATATCATTTCTTAAAAAAAAGGAGGTAATAGAC [TGCATGCA_negctrl_site555] | 9.25 ± 0.28
29 | AATAAATAAATATATACACACATATATGTCTACATA [CACACA_site3158] | 8.3 ± 0.4
30 | TATATATGCATTAAATGATGTTCCTGTTTTTTAAAA [CACACA_negctrl_site1378] | 8.71 ± 0.44
31 | ATACGAAGTACGTACACACACTTATATGTTACTAAA [CACACA_site7812] | 8.6 ± 0.27
32 | TTGCATTACGAACATACACACAGAATAACTGAAAAC [CACACA_site3025] | 8.88 ± 0.53
33 | TTCGATGAATATACAAGTACATATCCTTACGAACTG [XGTACX_site1650] | 8.26 ± 0.41
34 | TATTTGTGTATTTTTACACACATTAATATATTTATA [CACACA_site7562] | 8.08 ± 0.27
35 | TGTACAAATTATACTTCGAACGAAGGGCATACATAT [XGTACX_negctrl_site37] | 8.88 ± 0.42
36 | TATATATATATTATATGTACACATTTGTGAATTATT [XGTACX_site5848] | 9.46 ± 0.26
37 | TATAGATAACAAAAGTGTACATGTTGTATACACATG [XGTACX_site3471] | 8.73 ± 0.31
38 | AACAACTATTACTGCACACATTCTTACACTATATAA [CACACA_site654] | 9 ± 0.3

Row | Sequence | gcPBM binding intensity (ln)
39 | TATATATATAAACACACACACACACCCAAGCGTAGC [CACACA_site4210] | 9.12 ± 0.29
40 | TATTCCTATATAAAGACACACATATGTAACTACGAT [CACACA_site4139] | 8.66 ± 0.57
41 | TGTGTTATATATAAAGAAAAAAAAAAAAAATATATA [CACACA_negctrl_site567] | 8.46 ± 0.42
42 | AAAAATTTAATTATTTGTACATAAAATACATTTCTG [XGTACX_site791] | 8.14 ± 0.38
43 | ATTATAATAATGTGATGTACATTAATTGTCTTCCTA [XGTACX_site5404] | 8.63 ± 0.41
44 | AATACATCATTAAAATGTACATATATATATACATTA [XGTACX_site132] | 8.32 ± 0.35
45 | ATATATATTAATTTTGTGCACAAATGGAAATGTTTG [GTGCAC_site9971] | 8.97 ± 0.26
46 | GAAATAAGGGTTATTTCACACATTGCATGTATTTTC [CACACA_site5752] | 8.95 ± 0.49
47 | AAATACTTAACATTGGTGCATATTTGTAAAATTATT [GTGCAC_site9515] | 8.79 ± 0.13
48 | TTTTTTTTTTTTTTATGTACTAAAAAATGAAAAATA [XGTACX_site6812] | 8.27 ± 0.43
49 | AAAAAAAAAAAAAAAACACACACATATATATAATAT [CACACA_site9038] | 8.67 ± 0.23
50 | TTATTTATTTATTGGGTGCACTTGATTTAAATATGC | 9.26 ± 0.69
51 | AGAATACAAAATTGCACACATATTGTGAAAATGTTA [CACACA_site4005] | 8.39 ± 0.28
52 | ATGCAATAATAATATTGTACGCATATATTTTTTACT [XGTACX_site3384] | 8.41 ± 0.3
53 | TTTTGGCTTCTAATATTATACAAAATGGTAAGGAAA [TGCATGCA_negctrl_site169] | 8.58 ± 0.41
54 | TTATAAAATATTTTTTGTACACATAATAGTAAGACT [XGTACX_site933] | 8.63 ± 0.26
55 | CCATAATATTATAGACGTACGAATATATATAAAAGA [XGTACX_site7295] | 9.18 ± 0.47
56 | CACCCACACCAACACACACACATATATAATATATAT [CACACA_site595] | 8.81 ± 0.39
